± gives the standard deviation of the averaged measurements. The list shows a part of the results.
tested on: PfAP2-I AP2 domain 3 (GST-tagged); assay: gcPBM binding intensity (ln(normalized median fluorescence intensity)); higher = stronger DNA binding
How it was run: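 The highest Masliner-normalised natural-log median intensity across replicate spots of either probe orientation is reported as binding intensity. GST-tagged P. falciparum DNA-binding domains expressed in E. coli were applied for 1 h to an Agilent 4 × 180k array of primer-extended double-stranded 36-bp intergenic genomic probes plus negative controls, and bound protein was detected with Alexa488 anti-GST antibody and scanned at 488 nm.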

| Sequence | gcPBM binding intensity (ln) |
| --- | --- |
| AAAAAAATTAAAAATAAAGAAAAAAAAAAAAAAAAA [GTGCAC_negctrl_site401] | 8.02 ± 0.99 |
| ATCATGAAATATATTTGTACACATAATAATATAATA [XGTACX_site8798] | 7.92 ± 0.23 |
| ATTTGGCAGAAACACACACACACACCCACCCACATA [CACACA_site589] | 8.29 ± 0.52 |
| TTTTTTTTTATAAATACACACGTACGGGTGCATAAC [CACACA_site8444] | 10.9 ± 0.73 |
| TATTAAAAGGTGAGTACACACATATATGTGTATATA [CACACA_site7070] | 7.88 ± 0.099 |
| ATATATATATATATATGTACACAGGACAATAATCCT [XGTACX_site6383] | 9.42 ± 0.35 |
| TAAAAAAATTCATGCACACGAAATAAAAAGCACCTT [CACACA_site4667] | 10.035 ± 0.007 |
| TTTTTTAAAAGATAATATTTTATTAATGTATTCTCA [GTGCAC_negctrl_site598] | 7.2 ± 0.55 |
| AAACATAAATTTTATTGTACATTATATAGAATTTTC [XGTACX_site576] | 7.49 ± 0.43 |
| TTTTCATTTTTTCGTTGTACATAAATAATATATATT [XGTACX_site856] | 8.21 ± 0.59 |
| AATACATACATACATACACACATATATATATATTAT [CACACA_site3575] | 7.99 ± 0.66 |
| TTTTACTATACTTATGCACACAAGATATATACATAT [CACACA_site2968] | 9.31 ± 0.13 |
| CACATGTATTTATAGGTGCGTAAAAACACTTTATAT [GTGCAC_site9501] | 10.2 ± 0.23 |
| ACTAATTACTATAAAACACACATATATTTATTTATA [CACACA_site7263] | 8.03 ± 0.52 |
| TTATAGAAACATTGGTGTACGATATTTACTTCTTTC [XGTACX_site7314] | 7.69 ± 0.49 |
| GGAATAGTCGGGTGCATACACACCTTAAATATAATA [CACACA_site1081] | 10.4 ± 0.54 |
| AAAGAAAATTCAATAGTGCATAAAAATATATATGTT [GTGCAC_site9680] | 10.7 ± 0.44 |
| ACAGATGATCAAAATTGTACAGAGTTATATTATATT [XGTACX_site4642] | 7.57 ± 0.52 |
| TTATTTAAAAATAGCACACATTATATATATATATAT [CACACA_site5556] | 9.15 ± 0.2 |

| Sequence | gcPBM binding intensity (ln) |
| --- | --- |
| CTTATACAAAAAAAAAGTACATAACATAATAAGAAT [XGTACX_site6782] | 8.15 ± 0.43 |
| GATAAACCATATATAACACACATATGAATATTGCAA [CACACA_site6735] | 8.03 ± 0.52 |
| ATATCATATATAAGTCGTACGATGAATAGAATTTTT [XGTACX_site7586] | 7.74 ± 0.65 |
| CACCCATACAGACATACACACACATATATATTAATA [CACACA_site8077] | 8.12 ± 0.5 |
| ATACACTAGAAAATTTTATAGTATTATTAATGTTAA [GTGCAC_negctrl_site101] | 7.5 ± 0.54 |
| TTTTTATTCGTTAAATGTACAAAAAAAATGTTATAT [XGTACX_site2804] | 7.92 ± 0.39 |
| GCTTAGTTATATAACTGTACTATTTTTATTTATATG [XGTACX_site884] | 8 ± 0.4 |
| AATAAGATAAGGAAAAGTACTTATAATTAAACTAAT [XGTACX_site1850] | 8.41 ± 0.65 |
| CTCATAGTTGGGTGCACACAAAAAATTAAAAAAATA [CACACA_site3032] | 11.1 ± 0.81 |
| AAATATAAGTAAATAAATAAATATATAAATATATAA [TGCATGCA_negctrl_site441] | 7.13 ± 0.45 |
| AAATACATACATTAATGTACAAATAGAAACACTCTT [XGTACX_site1512] | 7.63 ± 0.59 |
| ATAAAGTAAGAAGAAATAATGATTTTCATGGAAAAC [XGTACX_negctrl_site322] | 7.58 ± 0.87 |
| TATCATCTTAATATCGTGCACATTTATAGAACGAAA [GTGCAC_site9992] | 11 ± 0.12 |
| ATACCTCAAATTGATACACACAAAAAAAGTAAATTA [CACACA_site3134] | 7.71 ± 0.42 |
| TTTTACTATACTTATGCACACAAGATAAATACATAT [CACACA_site5619] | 9.57 ± 0.057 |
| CTATTTTAATATTTTACACACCATGTAAAATATATA [CACACA_site5732] | 7.97 ± 0.28 |
| TATTTTTTTTCGTAATGTACATAAAAAATGCAAAAA [XGTACX_site8491] | 8.36 ± 0.057 |
| TATATATATATAACAACACACACAGATCATAAAACT [CACACA_site8670] | 9.38 ± 0.43 |
| ATTATATAATTTAATCGTACACAAATATTTGTTAGT [XGTACX_site5913] | 7.86 ± 0.38 |

| Sequence | gcPBM binding intensity (ln) |
| --- | --- |
| TATTATTCCATGTGAAGTACAGAAATATAAATAAAT [XGTACX_site5106] | 7.93 ± 0.4 |
| CTTTTAAAAAAATTCATGCACACGAAATAAAAAGCA [CACACA_site929] | 8.61 ± 0.67 |
| CCATAATTATATGCCAGTACATATTTGTAACAAAAA [XGTACX_site851] | 7.9 ± 0.4 |
| TTTATTTTTCATTGGGGTACACAAGTTTATTTTATT [XGTACX_site4263] | 8.36 ± 0.39 |
| TAAGTAATAGTTTGTGCACACTCAAGTATATCATAT [CACACA_site4035] | 10.8 ± 0.28 |
| CAAAATATTTTTATAACACACATATATAGAATGTGC [CACACA_site1145] | 7.65 ± 0.44 |
| CATCCACATAGATGTACACACATATATATATATATA [CACACA_site5616] | 9.46 ± 0.66 |
| ATATGTATATTTTTGATGTGCTTTTATTTGGTTATT [CACACA_negctrl_site626] | 8.1 ± 0.41 |
| AAAAAAAATACATACACACACACACGCACATATATA [CACACA_site7645] | 8.03 ± 0.38 |
| ATTTTTTTATAATCAACCCATTTCCTACATTTTTAT [CACACA_negctrl_site1237] | 7.9 ± 0.75 |
| CTTCATAAAAATTGCACACATATAATAATGTACATA [CACACA_site2212] | 8.62 ± 0.17 |
| ATATCTCAACATATCACACATATATATATATAATAT [CACACA_site5018] | 8.05 ± 0.52 |
| AATAAATATAAATAAATAAATATATATATATATTTG [CACACA_negctrl_site1486] | 7.41 ± 0.3 |
| GTTATTAAATAATTCACACACATATATAAATAAATA [CACACA_site7129] | 7.84 ± 0.45 |
| ATAAAAATATATGAAACACACAGTTTCTATAAGAAA [CACACA_site4156] | 7.78 ± 0.15 |
| ATATGTATATAATAAGAACACACATATATTTAATTT [CACACA_site8961] | 7.54 ± 0.63 |
| TAATATACTATAAATACACACAAGTGTACATACTTC [CACACA_site983] | 7.79 ± 0.29 |
| TTAAAAAGAGGTGACACACACATATAAATCTAAATC [CACACA_site3738] | 7.58 ± 0.75 |
